Experimental findings from the BET-seq Pho4 binding data (Le et al. 2018) are described below.

The list shows a part of the results. Values were computed here from the reads of four pooled replicates and scatter widely.

The target in the test is T1, Pho4 (S. cerevisiae) (UniProt P07270).
T1 sequence: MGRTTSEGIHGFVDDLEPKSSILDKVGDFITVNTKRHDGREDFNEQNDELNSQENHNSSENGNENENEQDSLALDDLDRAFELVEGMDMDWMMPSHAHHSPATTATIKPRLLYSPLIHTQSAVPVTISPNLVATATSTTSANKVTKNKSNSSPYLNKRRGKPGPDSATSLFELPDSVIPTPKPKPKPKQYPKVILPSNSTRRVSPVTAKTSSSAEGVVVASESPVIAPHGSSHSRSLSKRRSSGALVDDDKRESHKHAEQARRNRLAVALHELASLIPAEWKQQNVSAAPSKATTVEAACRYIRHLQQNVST
In words: relative binding free energy (BET-seq); higher = weaker binding. The following applies: reference: library average.
With GTGGACACGTGTGGCA, the “relative binding free energy” value amounted to 0.1 kcal/mol.

Turning to TGTTACACGTGGTGAA, the “relative binding free energy” value was 0.02 kcal/mol.

For TGCGGCACGTGGCCGG, the “relative binding free energy” value was -0.23 kcal/mol.

For the sequence AAAGTCACGTGATGGG, the “relative binding free energy” value was found to be 0.18 kcal/mol.

Take CTTTGCACGTGTAATT: the “relative binding free energy” value is -0.01 kcal/mol.

As for AGTTGCACGTGTGTAC, the “relative binding free energy” value was -0.07 kcal/mol.

For the sequence TTACTCACGTGTCGGG, the “relative binding free energy” value worked out at 0.18 kcal/mol.

Take AGTATCACGTGTAGGA: the “relative binding free energy” value stood at 0 kcal/mol.

For CAGGTCACGTGAGAGG, the “relative binding free energy” value came out at 0.27 kcal/mol.

On to CGGTTCACGTGTAGTG, for which the “relative binding free energy” value turned out to be 0.12 kcal/mol.

With TCAAGCACGTGTGGGG, the “relative binding free energy” value stood at 0.01 kcal/mol.

As to CAGGGCACGTGATGTT, the “relative binding free energy” value was -0.04 kcal/mol.

Consider GATGGCACGTGGTGAT, for which the “relative binding free energy” value is -0.07 kcal/mol.

Take AAAGGCACGTGTCGAG: the “relative binding free energy” value is -0.06 kcal/mol.

On to GTGATCACGTGGGATC, for which the “relative binding free energy” value was found to be 0.12 kcal/mol.

CGGTGCACGTGATTAG: the “relative binding free energy” value amounted to 0.12 kcal/mol.

Consider TCTGCCACGTGGGGCA, for which the “relative binding free energy” value was -0.02 kcal/mol.

On to ATGGGCACGTGCAGGT, for which the “relative binding free energy” value is -0.36 kcal/mol.

GATCTCACGTGAGGTG: the “relative binding free energy” value stood at 0.38 kcal/mol.

Take TTAAGCACGTGGGCTG: the “relative binding free energy” value was -0.3 kcal/mol.

With TGGTGCACGTGAAGTC, the “relative binding free energy” value amounted to 0.11 kcal/mol.

As to GAGAACACGTGGGGGT, the “relative binding free energy” value was determined as 0.04 kcal/mol.

For CGTGTCACGTGATCGT, the “relative binding free energy” value amounted to 0.14 kcal/mol.

On to TAGTTCACGTGTTAGT, for which the “relative binding free energy” value was 0.28 kcal/mol.

Regarding AGTATCACGTGGTGTA, the “relative binding free energy” value was -0.06 kcal/mol.

On to GTTTGCACGTGGTTTT, for which the “relative binding free energy” value amounted to 0.06 kcal/mol.

In the case of ACTAGCACGTGGTTTG, the “relative binding free energy” value is -0.04 kcal/mol.

For the sequence GTTCGCACGTGTTTTG, the “relative binding free energy” value was found to be 0.07 kcal/mol.

Turning to GCTAGCACGTGGGGGG, the “relative binding free energy” value was -0.11 kcal/mol.

As for CTAAACACGTGTTGGG, the “relative binding free energy” value was 0.08 kcal/mol.

Turning to TTGGTCACGTGGGAGG, the “relative binding free energy” value is -0.06 kcal/mol.

Take GGGTCCACGTGATTTG: the “relative binding free energy” value was 0.3 kcal/mol.

With CAGTTCACGTGTTTAG, the “relative binding free energy” value worked out at 0.33 kcal/mol.

With GTTCTCACGTGTGGCT, the “relative binding free energy” value is 0.24 kcal/mol.

As to CGTGTCACGTGTTAGT, the “relative binding free energy” value was found to be 0.1 kcal/mol.

Consider GTATGCACGTGGTATA, for which the “relative binding free energy” value was -0.12 kcal/mol.

For the sequence AAGTTCACGTGGAAAT, the “relative binding free energy” value came out at 0.4 kcal/mol.

Take GTTGGCACGTGGGGCG: the “relative binding free energy” value is -0.14 kcal/mol.

With GTGCGCACGTGTGCAG, the “relative binding free energy” value was -0.11 kcal/mol.

For TTGTGCACGTGGGATG, the “relative binding free energy” value is -0.09 kcal/mol.

As to TTGTTCACGTGCCTTT, the “relative binding free energy” value turned out to be 0.1 kcal/mol.

With CAGTGCACGTGGAAGT, the “relative binding free energy” value was -0.03 kcal/mol.

For the sequence TATGTCACGTGGGTCA, the “relative binding free energy” value was -0.14 kcal/mol.

In the case of AGTAACACGTGGAATT, the “relative binding free energy” value came to 0.18 kcal/mol.

Regarding ACGGACACGTGGTGGC, the “relative binding free energy” value came to 0 kcal/mol.

Take GGCATCACGTGTTAGG: the “relative binding free energy” value was found to be 0.2 kcal/mol.

In the case of TATCACACGTGTTGGG, the “relative binding free energy” value was -0.1 kcal/mol.

Take CGAATCACGTGGGTTG: the “relative binding free energy” value was found to be 0.09 kcal/mol.

Take GTTTGCACGTGTGAAT: the “relative binding free energy” value came to 0.16 kcal/mol.

Turning to GGAGTCACGTGGTCGG, the “relative binding free energy” value came out at 0.1 kcal/mol.

Turning to TGTTGCACGTGGAGTT, the “relative binding free energy” value was determined as 0.07 kcal/mol.

As to ATTGTCACGTGGGTGG, the “relative binding free energy” value was -0.02 kcal/mol.

In the case of TTGTTCACGTGTTGAC, the “relative binding free energy” value worked out at 0.21 kcal/mol.

In the case of TGGGTCACGTGACTTT, the “relative binding free energy” value was 0.16 kcal/mol.

On to TTAGGCACGTGTGCGC, for which the “relative binding free energy” value is -0.09 kcal/mol.

Turning to GGTGACACGTGGTTGG, the “relative binding free energy” value is 0 kcal/mol.

Take GGATGCACGTGACGTG: the “relative binding free energy” value was determined as 0.11 kcal/mol.

As to GTAGTCACGTGCGAAG, the “relative binding free energy” value came out at 0.15 kcal/mol.

For GTATGCACGTGATGGA, the “relative binding free energy” value amounted to 0.15 kcal/mol.

As for TGTTGCACGTGACTAT, the “relative binding free energy” value was determined as 0.1 kcal/mol.

For CCTTGCACGTGGTTGT, the “relative binding free energy” value was -0.1 kcal/mol.

As to TGTGTCACGTGGTAGC, the “relative binding free energy” value is -0.01 kcal/mol.

As to TTGGGCACGTGTGTGA, the “relative binding free energy” value is -0.02 kcal/mol.

Turning to GCAGTCACGTGGTTTT, the “relative binding free energy” value turned out to be 0.19 kcal/mol.

In the case of ATTTTCACGTGCAGGT, the “relative binding free energy” value turned out to be 0.29 kcal/mol.

Take ACGTGCACGTGGGCAT: the “relative binding free energy” value is -0.17 kcal/mol.

CGACTCACGTGGGTTA: the “relative binding free energy” value is 0.21 kcal/mol.

With GTTAGCACGTGCTTAG, the “relative binding free energy” value was determined as 0.08 kcal/mol.

For TGAGTCACGTGACGGA, the “relative binding free energy” value was determined as 0.15 kcal/mol.

With AGTAGCACGTGTTGAA, the “relative binding free energy” value is 0.02 kcal/mol.

For TGTATCACGTGCTTAT, the “relative binding free energy” value came out at 0.15 kcal/mol.

As to GTACGCACGTGGTGGG, the “relative binding free energy” value was -0.27 kcal/mol.

In the case of TAATGCACGTGAGTAA, the “relative binding free energy” value is 0.15 kcal/mol.

For ATTTTCACGTGTCGAT, the “relative binding free energy” value was 0.28 kcal/mol.

Consider AGTTACACGTGCTGGT, for which the “relative binding free energy” value was found to be 0.1 kcal/mol.

As to GGGGACACGTGAGCAG, the “relative binding free energy” value was 0.26 kcal/mol.

With GAGGGCACGTGGGAGG, the “relative binding free energy” value was -0.08 kcal/mol.

Regarding ATCATCACGTGGATGG, the “relative binding free energy” value was determined as 0.15 kcal/mol.

For ATAGGCACGTGACGGT, the “relative binding free energy” value was -0.04 kcal/mol.

Regarding ACTAGCACGTGGGGGT, the “relative binding free energy” value was -0.18 kcal/mol.

On to GGAGTCACGTGGTCGC, for which the “relative binding free energy” value came out at 0.06 kcal/mol.

As for GGATACACGTGGGTTC, the “relative binding free energy” value was determined as 0.01 kcal/mol.

With GCAATCACGTGTTGTG, the “relative binding free energy” value came to 0.2 kcal/mol.

On to GATGACACGTGGGTTG, for which the “relative binding free energy” value was -0.01 kcal/mol.

Turning to CTTGTCACGTGAGATG, the “relative binding free energy” value was determined as 0.18 kcal/mol.

With TTGGACACGTGGATGT, the “relative binding free energy” value turned out to be 0.08 kcal/mol.

Consider TGGCGCACGTGTTGAG, for which the “relative binding free energy” value was -0.08 kcal/mol.

For TATGGCACGTGGGATA, the “relative binding free energy” value was -0.14 kcal/mol.

In the case of GGTGCCACGTGTAGAT, the “relative binding free energy” value came out at 0.15 kcal/mol.

With TTGGGCACGTGAAGTA, the “relative binding free energy” value was 0.17 kcal/mol.

Turning to GTATTCACGTGCCGGT, the “relative binding free energy” value came to 0.33 kcal/mol.

Take GGTGACACGTGGTGCA: the “relative binding free energy” value was -0.13 kcal/mol.

On to GGTGCCACGTGTTTTG, for which the “relative binding free energy” value was determined as 0 kcal/mol.

Take AGATTCACGTGGGGCA: the “relative binding free energy” value was determined as 0.03 kcal/mol.

As to CGTTGCACGTGCTGGA, the “relative binding free energy” value is -0.06 kcal/mol.

As to CTTATCACGTGAATTG, the “relative binding free energy” value is 0.26 kcal/mol.

In the case of TAGAGCACGTGCGGAG, the “relative binding free energy” value is -0.05 kcal/mol.

ATTGACACGTGTGGCG: the “relative binding free energy” value came to 0.12 kcal/mol.

For the sequence ATCGTCACGTGATGTG, the “relative binding free energy” value amounted to 0.16 kcal/mol.

In the case of TGGTCCACGTGGGAAG, the “relative binding free energy” value is -0.09 kcal/mol.

For AATGGCACGTGGGCGG, the “relative binding free energy” value is -0.12 kcal/mol.

Take AAGTCCACGTGATGGT: the “relative binding free energy” value turned out to be 0.09 kcal/mol.

On to AGGATCACGTGTGATG, for which the “relative binding free energy” value is 0.29 kcal/mol.

In the case of TAGTTCACGTGAAGTG, the “relative binding free energy” value was found to be 0.32 kcal/mol.

In the case of GTGGCCACGTGTTGAG, the “relative binding free energy” value was found to be 0.03 kcal/mol.

Turning to GTATACACGTGCGGGG, the “relative binding free energy” value is -0.03 kcal/mol.

As to AGCGGCACGTGGGGTT, the “relative binding free energy” value was -0.17 kcal/mol.

On to ATGTTCACGTGCGTTC, for which the “relative binding free energy” value amounted to 0.28 kcal/mol.

As to TGGGACACGTGAGTTT, the “relative binding free energy” value came out at 0.26 kcal/mol.

Turning to TGGGTCACGTGCAGGC, the “relative binding free energy” value amounted to 0.12 kcal/mol.

Take GTACACACGTGTGTTT: the “relative binding free energy” value came out at 0.02 kcal/mol.

In the case of TGTGGCACGTGGTCAA, the “relative binding free energy” value was -0.36 kcal/mol.

Consider GTAAACACGTGGGGGT, for which the “relative binding free energy” value is -0.01 kcal/mol.

Turning to GGATGCACGTGTGCTG, the “relative binding free energy” value was -0.02 kcal/mol.

As to TGGGGCACGTGTCAGA, the “relative binding free energy” value was -0.16 kcal/mol.
